# Reference: the supplement of paper PMC12217912
# Some of the results follow. The full chains were built here from the parent and the listed change. Inactive controls read about 0.05.
# B1: TEV protease; numbered along this chain (parent)
# chain: MGESLFKGPRDYNPISSSICHLTNESDGHTTSLYGIGFGPFIITNKHLFRRNNGTLVVQSLHGVFKVKDTTTLQQHLVDGRDMIIIRMPKDFPPFPQKLKFREPQREERICLVTTNFQTKSMSSMVSDTSCTFPSGDGIFWKHWIQTKDGQCGSPLVSTRDGFIVGIHSASNFTNTNNYFTSVPKNFMELLTNQEAQQWVSGWRLNADSVLWGGHKVFMVKPEEPFQPVKEATQL
# Variants of: B1
# Experiment: raw area under fraction-flipped curve 0-4 h after induction (AUC4h, not background-subtracted), DNA-recorder readout of cleavage of the substrate (dimensionless); higher = more cleavage of the substrate by the protease variant
# Conditions: temperature: 34 °C; time window: 0-4 h after rhamnose induction
# 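Further: Bxb1 expression induced with 0.2% (w/v) L-rhamnose at OD600 near 0.5, cultures sampled hourly, flipped fraction per protease–substrate barcode pair counted by paired-end Illumina sequencing.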
Variant,area with substrate ENLYFQD,area with substrate ENLYFQF,area with substrate ENLYFQG,area with substrate ENLYFQI,area with substrate ENLYFQM,area with substrate ENLYFQN,area with substrate ENLYFQP,area with substrate ENLYFQR,area with substrate ENLYFQS,area with substrate ENLYFQT
E189W,0.0764,0.0686,0.0859,0.0434,0.0933,0.0745,0.0353,0.0543,0.106,0.0679
N172F,,,,,0.0556,,,0.0697,0.0602,
G153W,,,0.0688,,0.0511,0.0519,,,0.0527,
N206A,,,0.0971,,,,,,0.124,
N206K,,,,0.0951,0.0851,,0.0558,0.0595,0.1,
M83V,0.0666,,,,,,,,0.0716,
A196R,,,0.123,,,,,,0.0919,
N116M,,,,,,0.0852,0.073,0.0562,0.1,
G80F,,,0.0606,,0.0843,0.0987,,,0.102,0.0683
Q194V,0.0546,,0.067,0.066,0.0869,0.0924,0.0645,,0.111,0.0683
T71H,0.0757,,0.0739,0.055,,0.0625,0.0701,0.0815,0.0895,
T71Y,0.0694,,0.0868,,,0.0515,,0.0651,0.081,
F117D,,,0.168,0.0617,,,,0.0624,0.0908,
V200R,0.0607,,0.0742,,,,,,0.0823,0.0667
S154Q,,0.0686,0.0779,,,,,0.0453,0.088,
N178W,,,,,0.108,0.0786,,,0.145,
N178F,0.164,,0.145,,,,,,0.204,0.147
N178V,0.0575,,,,,0.0609,0.0617,0.0585,0.0744,
N175W,,,,0.045,,,0.0674,,0.0764,0.0584
H143M,0.0646,0.0258,0.0743,0.0584,0.0374,,0.0656,0.0648,0.0745,0.0638
T129M,,,,,0.056,0.0889,,0.0637,0.0801,

Variant,area with substrate ENLYFQD,area with substrate ENLYFQF,area with substrate ENLYFQG,area with substrate ENLYFQI,area with substrate ENLYFQM,area with substrate ENLYFQN,area with substrate ENLYFQP,area with substrate ENLYFQR,area with substrate ENLYFQS,area with substrate ENLYFQT
T129Y,,,,,0.0894,0.0687,,,0.095,0.0628
T129E,,0.0587,,,0.0997,0.07,,0.0507,0.0951,
K66C,,,,,0.101,0.0797,0.0562,0.0731,0.11,
V157I,0.0653,,0.11,,0.0891,0.0953,,0.0494,0.0979,
T132H,,,0.0682,,0.0797,,,0.0647,0.0773,0.0481
F173R,,0.042,,0.0522,,,0.068,,0.0919,0.0737
V57D,0.0892,,0.0964,0.0143,0.103,0.0923,,0.0593,0.103,0.059
V57A,0.0779,0.0738,0.101,,,0.0747,0.0533,0.0658,0.104,
L235N,0.0855,,0.0929,0.0493,,0.0756,0.0371,0.0509,0.103,
L235I,0.0678,,,0.0682,0.0865,,0.0669,0.0529,0.0994,0.0785
A207L,0.0736,0.0728,0.0697,0.0689,,0.0604,0.0583,0.0731,0.0877,
L205D,,,,,0.056,,0.0537,,0.0794,
T115V,0.0608,,0.0939,,0.0944,,0.0521,0.0546,0.101,0.0747
R204A,0.0755,,0.128,0.0719,0.102,0.0735,,0.0694,0.119,
F6K,,0.0628,,,0.0745,,,,0.0928,0.0539
N193R,0.0544,,,,,0.0793,,,0.0893,
V220T,,,,0.0652,0.0585,,,,0.12,0.065
F41C,0.0548,,0.0862,0.0628,0.17,0.0914,0.054,0.0636,0.0983,0.0631
A170M,,,0.0679,,,,,0.064,0.0626,
G136S,,,,0.0599,,0.0793,,,0.101,

# Same assay, conditions: temperature: 34 °C; time window: 0-4 h after rhamnose induction
Variant,area with substrate ENLYFQV,area with substrate ENLYFQW,area with substrate ENLYFQK,area with substrate ENLYFQL,area with substrate ENLYFQE,area with substrate ENLYFQH,area with substrate ENLYFQC,area with substrate ENLYFQY,area with substrate ENLYFQQ
E189W,0.0641,0.0654,,,,,,,
N172F,,0.0718,0.0671,0.075,,,,,
G153W,,0.0543,0.0031,,,,,,
M83V,,0.0549,,0.0688,,,,,
N116M,0.0623,,,,0.0726,0.0939,,,
G80F,,,0.0701,,,0.101,,,
Q194V,,0.0589,,0.0513,,,0.102,0.0938,
T71H,,,0.0479,0.0647,,,,,
T71Y,0.0436,,0.0744,,0.0554,0.0737,,0.0844,
F117D,,0.0587,,,0.0812,,,0.0808,
V200R,,,0.0495,,,0.0583,0.064,,
S154Q,0.0504,0.0715,,0.0707,,,,0.0562,
N178W,,,,,,0.0871,,,
N178F,0.0766,,0.0836,0.126,,,,,
N178V,0.0496,,0.0551,0.0583,,0.0234,,,
N175W,,,0.0509,,0.0554,,,,
H143M,,,0.0657,0.0614,,,,0.0554,0.0805
T129M,,,0.0533,0.0512,,0.0718,,,0.0842
T129Y,,0.0676,0.0786,0.065,,0.0961,,,0.0703

Variant,area with substrate ENLYFQV,area with substrate ENLYFQW,area with substrate ENLYFQK,area with substrate ENLYFQL,area with substrate ENLYFQE,area with substrate ENLYFQH,area with substrate ENLYFQC,area with substrate ENLYFQY,area with substrate ENLYFQQ
T129E,,,0.0711,,,,,0.0557,
K66C,0.0617,,,0.063,0.0659,,,,
V157I,,0.0564,0.0521,0.0757,,0.089,,,
T132H,,,0.102,,,,,0.0562,
F173R,,0.0634,0.0631,0.0627,,,,,0.0668
V57D,,,0.0652,0.052,,0.0834,0.137,0.0808,
V57A,0.0732,0.0625,0.0504,0.0206,0.0709,0.0731,,,
L235N,0.0671,,,0.0615,,0.0719,,,
L235I,,0.0655,0.0798,0.0865,,,,,
A207L,,,,,,0.0813,0.112,,
L205D,,,0.03,,,,0.114,0.0528,
R204A,,,0.0746,0.0579,,0.102,,,0.0501
F6K,0.0825,,0.0516,0.0645,,,,0.0897,
N193R,,,0.0632,,,,,,
V220T,,,,,,,,0.089,
F41C,0.0605,0.0694,0.0589,,,0.0977,0.101,0.0724,
A170M,,,0.0644,0.0342,,0.063,,,0.0624
G136S,,0.0763,0.0567,,,0.0929,,,0.0431
